Experimental data: PubChem BioAssay (NCATS)
This is one part of the list. The main result of the screen is listed elsewhere. These columns were measured beside it and carry no call. Most of these compounds were active or inconclusive in the main read-out, so they are no random draw. Words in brackets tell the shape of the fitted curve; partial curves, single points and poor fits give uncertain potencies.

What follows are compounds tested against Histamine N-methyltransferase (Homo sapiens) (UniProt P50135) (assay: Confirmatory Screen for Target Class Profiling of Small Molecule Inhibitors of Methyltransferases (AID 1745852;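 also: inhibitor potency for blocking SAH production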)). Settings: MTase-Glo luminescence, SAH detection, recombinant enzyme; measured here: HNMT inhibition potency.
Tags tell the direction and shape of the fitted curve.

Sequence of UniProt P50135 (P50135 whole entry, looked up): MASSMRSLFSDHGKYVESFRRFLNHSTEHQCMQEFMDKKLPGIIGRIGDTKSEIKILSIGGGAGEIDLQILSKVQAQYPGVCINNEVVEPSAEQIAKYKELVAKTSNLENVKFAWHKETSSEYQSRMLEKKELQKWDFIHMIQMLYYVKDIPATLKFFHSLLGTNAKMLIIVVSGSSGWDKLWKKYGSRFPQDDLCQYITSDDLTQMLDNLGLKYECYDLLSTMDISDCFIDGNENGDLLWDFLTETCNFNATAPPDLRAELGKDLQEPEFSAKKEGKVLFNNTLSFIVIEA

How did the IC50 turn out when CC(C)(C[C@@](O)(Cc1cc2ccncc2[nH]1)C(F)(F)F)c1cc(F)ccc1O was run?
The IC50 was 19.2 µM [falling, partial curve].

COc1cc2c(NC3CCN(CC4CCCCC4)CC3)nc(N3CCCN(C(C)C)CC3)nc2cc1OCCCN1CCCCC1 was tested. Which IC50 did it give?
Its IC50 is 4.29 µM [falling, full curve].

How did the IC50 turn out when CC1CCN(CCCNC(=O)CCc2nnc3n(Cc4ccccc4Cl)c(=O)c4ccccc4n23)CC1 was run?
Its IC50 is 10.8 µM [falling, partial curve].
